These results are taken from paper PMC4336329 (PLoS ONE, 2015).

About 2,200 (0.71%) of roughly 310,000 compounds showed an effect of 50% or more. Effects have a minus sign here. Some of the results follow.

In the assay the target is human ether-à-go-go-related gene (hERG) potassium channel (human, UniProt Q12809). The assay is described as follows: primary screen, population patch clamp on CHO cells stably expressing hERG.
Sequence of human ether-à-go-go-related gene (hERG) potassium channel (Q12809 whole entry, looked up): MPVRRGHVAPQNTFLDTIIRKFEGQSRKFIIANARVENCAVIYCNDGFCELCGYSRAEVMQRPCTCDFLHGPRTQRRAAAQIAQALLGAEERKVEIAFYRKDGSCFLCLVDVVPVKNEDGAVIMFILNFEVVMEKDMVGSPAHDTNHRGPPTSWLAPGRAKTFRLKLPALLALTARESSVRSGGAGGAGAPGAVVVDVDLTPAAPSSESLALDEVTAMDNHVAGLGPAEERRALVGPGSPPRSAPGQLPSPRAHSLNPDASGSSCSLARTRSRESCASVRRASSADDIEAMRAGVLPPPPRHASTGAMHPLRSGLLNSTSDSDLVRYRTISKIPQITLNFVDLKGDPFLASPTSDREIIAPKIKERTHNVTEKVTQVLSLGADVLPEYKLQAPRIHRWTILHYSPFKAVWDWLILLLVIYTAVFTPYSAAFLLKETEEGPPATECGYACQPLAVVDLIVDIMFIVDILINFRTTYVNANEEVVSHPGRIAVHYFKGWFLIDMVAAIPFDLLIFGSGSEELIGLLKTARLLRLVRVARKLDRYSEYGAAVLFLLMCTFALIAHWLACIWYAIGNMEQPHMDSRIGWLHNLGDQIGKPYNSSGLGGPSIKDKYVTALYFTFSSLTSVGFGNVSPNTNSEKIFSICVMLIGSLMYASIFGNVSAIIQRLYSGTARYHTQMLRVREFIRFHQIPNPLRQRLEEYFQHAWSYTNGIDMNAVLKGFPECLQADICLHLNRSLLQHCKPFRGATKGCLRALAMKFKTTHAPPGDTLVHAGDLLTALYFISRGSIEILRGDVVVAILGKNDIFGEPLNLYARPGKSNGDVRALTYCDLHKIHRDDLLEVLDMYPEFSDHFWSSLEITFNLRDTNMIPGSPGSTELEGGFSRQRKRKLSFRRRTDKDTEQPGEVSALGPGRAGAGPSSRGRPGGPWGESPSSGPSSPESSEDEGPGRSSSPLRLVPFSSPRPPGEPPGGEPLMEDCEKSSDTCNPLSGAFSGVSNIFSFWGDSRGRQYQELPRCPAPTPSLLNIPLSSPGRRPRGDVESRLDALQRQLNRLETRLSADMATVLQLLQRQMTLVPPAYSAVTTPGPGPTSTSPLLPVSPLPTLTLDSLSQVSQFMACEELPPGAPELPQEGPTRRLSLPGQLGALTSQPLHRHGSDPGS
In the case of `CC(=O)c1ccc(OCc2cc(C(=O)N3CCCCC3c3cccnc3)no2)cc1` (centres unmarked), the “hERG current change (%, negative = inhibition) at 1uM” value is listed as -0.85%.

As to `O=c1c2c(nc3c(-c4ccc(Cl)cc4)c[nH]n13)CCC2`, the “hERG current change (%, negative = inhibition) at 1uM” value was found to be 15.3%.

`COCCNC(=O)CSc1nc(N)c(NC(=O)c2ccccc2F)c(=O)[nH]1`: the “hERG current change (%, negative = inhibition) at 1uM” value is recorded as 6.61%. Turning to `O=S(=O)(Nc1ccc2c(c1)OCO2)c1ccc(Br)s1`, the “hERG current change (%, negative = inhibition) at 1uM” value was determined as 8.48%. Then `Cc1ccc(C(=O)N(CC(=O)NC2CCCC2)c2ccccc2C)s1`, with 4.64%; and `CCCN(CCC)C(=O)CC(c1ccccc1)C1CCOC(C)(C)C1` (centres unmarked), with 6.88%; and `COc1ccc(CCNC(=O)CSc2ccc(-c3cccs3)nn2)cc1`, with 8.41%.

As for `Cc1ccc(C(=O)N2CCCC2)cc1S(=O)(=O)N1CCOCC1`, the “hERG current change (%, negative = inhibition) at 1uM” value stood at 6.52%. For `Cc1nn(CC(O)CN2c3ccccc3Sc3ccccc32)c(C)c1Br` (centres unmarked) the value was 9.45%; for `CCCCCNc1nc(-c2ccccc2)nc(-n2ccnc2)n1`, 7.73%. Then `Cc1cccc(N(C(=O)c2snc(C(N)=O)c2N)C(C(=O)NCC2CCCO2)c2c[nH]c3ccccc23)c1` (centres unmarked), with 14.4%. Then `Cc1n[nH]c(=O)c2c(NC(=O)CSc3nc4ccccc4c(=O)n3CCCO)oc(C)c12`, with -3.91%; and `Cn1cc(CCC(=O)N2CCC3(CC2)OCCO3)c2ccccc21`, with -4.35%. `CCOc1ccc(N2CC(C(=O)N3CCCC3)CC2=O)cc1` (centres unmarked): the “hERG current change (%, negative = inhibition) at 1uM” value is 5.71%. Take `Cc1ccc(Cl)cc1NC(=O)CN1CCN(S(=O)(=O)N2CCC(C)CC2)CC1`: the “hERG current change (%, negative = inhibition) at 1uM” value is recorded as -4.56%.

For `Cc1cccc(-c2nnc(SCC(=O)N3CCCC3)o2)c1`, the “hERG current change (%, negative = inhibition) at 1uM” value stood at 12.4%.

For the molecule `CN(C)C(=O)c1ccc2c3c(cccc13)CC2`, the “hERG current change (%, negative = inhibition) at 1uM” value is listed as 19.3%.

In the case of `COc1cc(C(=S)N2CCOCC2)ccc1OC(=O)c1cc([N+](=O)[O-])cc([N+](=O)[O-])c1`, the “hERG current change (%, negative = inhibition) at 1uM” value worked out at 4.77%.

In the case of `CCOC(=O)c1sc2nc(NC(=O)C3CC3)sc2c1C`, the “hERG current change (%, negative = inhibition) at 1uM” value is given as 2.72%. Then `COC(=O)c1c(-c2ccc(C)cc2)csc1N`, with 1.71%. Then `COc1ccccc1CNc1ncc(-c2ccc(F)cc2)n1C.O=C(O)C(=O)O`, with -28.6%; and `CCOC(=O)CC1C(=O)NCCN1S(=O)(=O)c1ccc(Cl)c(Cl)c1` (centres unmarked), with 5.21%. For `O=C1NN(c2ccccc2)C(=O)/C1=C\c1ccccc1` the value was 8.73%.

As to `Cc1noc(/C=C/NCc2cccnc2)c1S(=O)(=O)N(C)CC(=O)N1CCc2ccccc21`, the “hERG current change (%, negative = inhibition) at 1uM” value was 11.4%. For `CC(OC(=O)c1snc(C(=O)NC2CCCCC2)c1N)C(=O)NC1CCCCC1` (centres unmarked) the value was -1.15%; for `O=S(=O)(NCc1cccnc1)c1ccc(Cl)c(Cl)c1`, 3.04%; for `CC(=O)Nc1ccc(S(=O)(=O)N2CCN(Cc3ccccc3[N+](=O)[O-])CC2)cc1`, 12.9%. As to `COCCNC(=O)c1onc(CSc2cccc(OC)c2)c1C(=O)O`, the “hERG current change (%, negative = inhibition) at 1uM” value is 3.94%. For `COc1ccc(CC(=O)OC(C)CN2CCOCC2)cc1` (centres unmarked) the value was 19.5%. For `Cc1cccc(COC(=O)Nc2ccc(NC(=O)c3ccccc3Cl)cc2)c1` the value was 15%. Then `COc1ccccc1NC(=O)c1ccc(S(=O)(=O)NCc2ccco2)cc1`, with 13.8%; and `O=C(CSc1ccccc1)Nc1nc2ccccc2[nH]1`, with 12%. With `Cc1ccc(NC(=O)CCCC(=O)O)c(Br)c1`, the “hERG current change (%, negative = inhibition) at 1uM” value is reported as 8.23%.

Turning to `CN(Cc1ccccc1)C(=O)COC(=O)c1cncc(Br)c1`, the “hERG current change (%, negative = inhibition) at 1uM” value stood at 8.75%.

Turning to `CC(=O)N/C(=C\c1ccccc1)C(=O)Nc1ccc(O)cc1`, the “hERG current change (%, negative = inhibition) at 1uM” value is on record as 2.02%.

For the molecule `CCCCC(NC(=O)Cc1c(C)c2cc3c(C)c(C)oc3c(C)c2oc1=O)C(=O)O` (centres unmarked), the “hERG current change (%, negative = inhibition) at 1uM” value is 4.83%. Then `CCN1C(=O)[C@H]2[C@@H](c3ccc(C)cc3)N3C(=O)N(c4ccc(C)cc4)C(=O)[C@@]3(C)[C@H]2C1=O`, with 6.87%; and `Cc1nn(CCCC(=O)NCc2ccccc2)c(=O)c2nccn12`, with 12.3%; and `CCc1ccccc1NC(=O)COc1ccc2c(=O)c(Oc3cc(C)ccc3C)coc2c1`, with 12.5%. For `CC(=O)c1ccc(-c2cc([C@H]3[C@H]4C=CC[C@@H](C)[C@@H]4C(=O)N3Cc3ccccc3)ccc2F)cc1` the value was 11.5%. Take `CC1CCCC(C)N1CCCNC(=O)CN1C(=O)COc2ccc(S(=O)(=O)N3CCOCC3)cc21` (centres unmarked): the “hERG current change (%, negative = inhibition) at 1uM” value was determined as 10.9%. Then `CCCCN(C)C(=O)Cn1cnc2sc(C)c(S(=O)(=O)N3CCN(c4ccccc4OC)CC3)c2c1=O`, with 13.9%; and `N#CCSc1nnc(Cc2cccs2)n1C1CCCCC1`, with 2.68%. Then `Cc1noc(NS(=O)(=O)c2ccc(N/C=C\C(=O)c3ccc(F)cc3)cc2)c1C`, with 2.43%.
